# Source: PubChem BioAssay AID1030 (National Center for Advancing Translational Sciences (NCATS), 2008)
# Among all 220,000 compounds or so, about 16,000 (7.3%) were called active. Inconclusive results, whose numbers are uncertain, are shown with a selection of clear calls. The call rests on the fitted dose curve; in most records, active means well fitted inhibition curve with a large enough effect (not every such curve was filed as active); inconclusive means small, poorly fitted or top-dose-only effect, or another doubt; inactive means no such curve, though single readings can be large or run the other way. No potency is given beside an inconclusive call; the fits are too rough.
# Biological target: Aldehyde dehydrogenase 1A1 (Homo sapiens) (UniProt P00352)
# UniProt P00352, sequence (P00352 whole entry, looked up): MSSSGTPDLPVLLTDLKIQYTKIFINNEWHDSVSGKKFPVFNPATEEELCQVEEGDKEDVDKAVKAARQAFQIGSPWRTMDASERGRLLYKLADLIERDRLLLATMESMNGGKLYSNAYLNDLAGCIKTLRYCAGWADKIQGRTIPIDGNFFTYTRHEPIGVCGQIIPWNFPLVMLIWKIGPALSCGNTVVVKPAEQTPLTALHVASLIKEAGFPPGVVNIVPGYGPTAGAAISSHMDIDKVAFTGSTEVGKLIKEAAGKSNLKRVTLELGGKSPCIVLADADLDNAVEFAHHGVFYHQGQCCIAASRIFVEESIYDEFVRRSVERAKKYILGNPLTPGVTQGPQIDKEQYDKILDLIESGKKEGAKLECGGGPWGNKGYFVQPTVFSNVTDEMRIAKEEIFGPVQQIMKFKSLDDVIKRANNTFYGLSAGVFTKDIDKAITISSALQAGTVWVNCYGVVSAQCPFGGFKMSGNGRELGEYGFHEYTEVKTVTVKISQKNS
# Test: qHTS Assay for Inhibitors of Aldehyde Dehydrogenase 1 (ALDH1A1)
# Conditions: Purified ALDH1A1, NADH fluorescence, propionaldehyde substrate; series mostly up to 75.3 µM
# Potency means the concentration at half of the fitted maximal effect; tags describe the fitted curve by direction and shape.
row,Structure (SMILES),Potency
1,CC1CCCN(C(=O)C2c3ccccc3C(=O)N3CCc4ccccc4C23)C1 (configuration not stated),"inconclusive [inhibitor, single point]"
2,CC1(C)CC(C(CCN(Cc2ccccc2)C(=O)c2ccco2)c2ccc(F)cc2)CCO1 (configuration not stated),"inconclusive [inhibitor, single point]"
3,COc1ccc(C2CC(c3ccc(F)cc3)Nc3nc(N)nn32)cc1OC (configuration not stated),inactive
4,CN1C(=O)c2ccc(C(=O)NCc3ccccc3)cc2C1=O,"inconclusive [inhibitor, single point]"
5,CC1CCN(C(=O)C2CCN(CCCc3ccccc3)CC2)CC1,"inconclusive [inhibitor, single point]"
6,O=c1c2ccccc2c(C=NCCCN2CCOCC2)c(O)n1Cc1ccc2c(c1)OCO2,inactive
7,Cc1noc(C)c1COc1ccc2ccc(=O)oc2c1,"inconclusive [inhibitor, partial curve]"
8,O=C(Nc1cccn2ncnc12)C(F)(F)F,inactive
9,Cc1cccc(NC(=O)CCCCCN2C(=O)c3ccccc3C2=O)n1,"inconclusive [inhibitor, partial curve]"
10,CCOC(=O)c1nnn(-c2nonc2N)c1CN1CCc2ccccc2C1,"inconclusive [inhibitor, single point]"
11,Cc1ccc2[nH]c(=O)c(CN(CCO)C(=O)NCc3ccccc3)cc2c1,"inconclusive [inhibitor, single point]"
12,CCOC(=O)C1(C)/C(=N/Nc2ccccc2Cl)C(=O)C(=O)N1c1ccccc1 (configuration not stated),active: 0.224 µM
13,COC(=O)c1ccc(C(=O)OC)c(NC(=S)N2CCCCC2C)c1 (configuration not stated),"inconclusive [inhibitor, partial curve]"
14,CCc1cc(C(=O)N2CCCC(CCC(=O)NCc3cccc(OC)c3)C2)no1 (configuration not stated),"inconclusive [inhibitor, single point]"
15,Cc1cccc(C2c3[nH]c4ccccc4c3CCN2C(=O)Cc2n[nH]c(C)n2)n1 (configuration not stated),"inconclusive [inhibitor, single point]"
16,Cc1ccc(Cn2ccc(NC(=O)c3cc(-c4cccc(Cl)c4)on3)n2)cc1,"inconclusive [inhibitor, partial curve]"
17,COC(=O)c1ccccc1CCC(C)=O,"inconclusive [inhibitor, single point]"
18,COc1ccc(C(=O)C(/C=N/O)=N/Nc2ccc(F)cc2)cc1,inactive
19,O=C(COc1ccccc1)NC(=S)Nc1cccc(NC(=O)c2ccccc2Cl)c1,active: 10 µM
20,COc1cc(/C=C/C(=O)NC(C)CCc2ccccc2)cc(OC)c1OC (configuration not stated),"inconclusive [inhibitor, partial curve]"
21,O=C1N=c2ccccc2=C1c1sc(=S)n(Cc2ccccc2Cl)c1O,inactive
22,CCCCCCC1CC(C)(/C(C)=N/NC(N)=O)OC1=O (configuration not stated),inactive
23,CCCCNC(=O)CC1N=C2c3ccccc3N=C(SCC(=O)Nc3cccc(OC)c3)N2C1=O (configuration not stated),"inconclusive [inhibitor, single point]"
24,O=C1OCCC1Sc1nnc(-c2ccco2)o1 (configuration not stated),inactive

row,Structure (SMILES),Potency
1,Cc1ccccc1NC(=O)Nc1ccc(C(F)(F)F)cc1,inactive
2,CCOC(=O)C1CCN(C(=O)CSc2ccc(Cl)cc2)CC1,inactive
3,CS(=O)(=O)N(CC(=O)NCCSCc1ccco1)c1ccc2c(c1)OCO2,"inconclusive [inhibitor, single point]"
4,CC(=O)N(Cc1ccc(F)cc1)C1=C(NCCc2ccccc2)C(=O)c2ccccc2C1=O,"inconclusive [inhibitor, partial curve, poor fit]"
5,CC(C)CN(Cc1c(O)ccc2ccccc12)CC(C)C,"inconclusive [inhibitor, partial curve]"
6,Cc1n[nH]c(=S)n1-c1ccc(Cl)cc1,inactive
7,CCCN1C(=O)C(Cc2nc3ccccc3c(=O)n2-c2ccccc2)c2cc(C)ccc21 (configuration not stated),"inconclusive [inhibitor, partial curve]"
8,N=c1c2c3c(sc2ncn1N)CCCC3,inactive
9,N#Cc1ccccc1Cn1c(=O)n(-c2ccc(CC(=O)NCc3ccco3)cc2)c(=O)c2sccc21,inactive
10,COc1ccc(Oc2c(C)oc3c(CN4CCOCC4)c(O)ccc3c2=O)cc1,"inconclusive [inhibitor, single point]"
11,Nc1nccc(-c2cccs2)n1,"inconclusive [inhibitor, single point]"
12,COc1cc(OC)c(OC)cc1/C=C1\CCC(C2CCCC2)C1=O (configuration not stated),active: 2 µM
13,c1ccc(-c2cn3nc(-c4ccccc4)c(-c4ccccc4)nc3n2)cc1,"inconclusive [inhibitor, single point]"
14,Nc1ccc2oc(-c3ccc4nc[nH]c4c3)nc2c1,"inconclusive [inhibitor, single point]"
15,Cn1cc(-c2nc3cncnc3n(Cc3ccc(F)cc3)c2=O)c2ccccc21,"inconclusive [inhibitor, single point]"
16,O=C(O)/C=C/C(=O)Nc1ccc(OC(F)(F)Cl)cc1,active: 25.1 µM
17,C#CCSc1nnc(-c2sc3ccccc3c2Cl)o1,"inconclusive [inhibitor, partial curve]"
18,Cn1c(=O)[nH]c(=O)c2c1nc(N1CCCCC1)n2CCCSc1nc2ccccc2s1,"inconclusive [inhibitor, partial curve]"
19,CCNS(=O)(=O)c1cccc(C(=O)c2c(C)cc3ccccn23)c1,inactive
20,OCCCc1nc2n(n1)C(c1ccccc1Cl)C=C(c1cccs1)N2 (configuration not stated),"inconclusive [inhibitor, single point]"
21,CC(=O)NC1C(Oc2ccc(C)cc2)OC2COC(c3ccco3)OC2C1O (configuration not stated),"inconclusive [inhibitor, partial curve]"
22,N#Cc1cccc(-c2ccc3ncnc(NCCN4CCOCC4)c3c2)c1,inactive
23,Cc1ccc(-c2nc3nc4ccccc4nc3n2Cc2ccco2)cc1,"inconclusive [inhibitor, single point]"
